The RNAGym collection of RNA variant scans (doi:10.7554/elife.90254)
Read counts are not given, so values of variants with three or more changes are uncertain.

B1: LINE1-mini (parent)
chain: GGCAGAGCUCAACACAGCGUGGCAAAGUGGCUGUGGCUAGACUGCC

Variants of: B1
Test: self-cleavage, relative activity (ratio to wild type); higher = more cleavage; in vitro, sequencing; the parent is a self-cleaving ribozyme

| Variant | self-cleavage |
| --- | --- |
| G22U G40U U43G | 0.05 |
| C23A A26G G33C | 0.07 |
| C23G A24G U34C A41U | 0.08 |
| C23G G27C U34C U38G | 0.03 |
| C23A U32A U34A | 0.04 |
| C23A G30U U32C G35C | 0.02 |
| G22U U28G U38G | 0.04 |
| G22U U32C C46A | 0.33 |
| G22U U38A G40U A41U C42G | 0.17 |
| C23A C31A G40C C46G | 0.43 |
| C23A G33U C42G | 0 |
| C23A G33U C42U | 0.17 |
| C23G U28A U32A C42U | 0.05 |
| C23A A25C U28A | 2.55 |
| C23G A25U U32C G33C | 0.01 |
| C23A G27U C45A | 0.24 |
| C23G U28C C31A U34C | 0.02 |
| C23A C37A C45U | 0.05 |
| C23G C31G C37G | 0 |
| C23A G30U G35U | 0.04 |
| C23G G27C G36U | 0.05 |
| C23A A41C C46U | 0.03 |
| C23G C31A C45A | 0.04 |
| G22U U32C G36A | 0.12 |

| Variant | self-cleavage |
| --- | --- |
| C23G G35A C42A | 0.03 |
| C23A G40C C42G G44C | 0.03 |
| C23G A26C A39U | 0.64 |
| G22U U38C G40A | 0.21 |
| C23A G36A G40C | 0.57 |
| C23G A26C G40C | 0.21 |
| C23G U28C C37U | 0.02 |
| C23G A24U G40U C45A | 0.03 |
| C23A G33C A39U C42U | 0.08 |
| C23G A24U C37G C46G | 0.03 |
| C23G G35U C42A | 0.01 |
| C23G G29U C42G | 0 |
| C23G G36U G44A | 0.03 |
| G22U G40A G44C | 0.17 |
| C23G G40U C42A | 0.02 |
| G22U U32G C37U | 0.02 |
| G22U U28C C31U G40U G44A | 0.04 |
| C23A G33A C42G C46G | 0.03 |
| C23A A41G C45G | 0.04 |
| C23A C31U G44U | 0 |
| C23A G36C C42A G44A | 0.45 |
| C23A U28C U34G | 0.15 |
| C23G U32C A39U | 0.04 |
| C23A A41G C46U | 0.12 |

| Variant | self-cleavage |
| --- | --- |
| C23G G29U C45U | 0.9 |
| C23A G36U A39G C42G C46U | 0.17 |
| C23A G30C C31G G44A | 0.04 |
| C23A G36C C37A | 0.09 |
| C23A A26C C37U | 0.02 |
| C23A U38C C42G | 0.03 |
| G22U U34G A41U | 0.1 |
| C23A A24U G35U | 0.13 |
| C23G C37G A39G | 0 |
| C23A A41U C42U | 0.18 |
| C23A G30A U32C | 1.05 |
| C23G C31A G44C | 0.06 |
| G22U U32G C45G | 0.75 |
| C23A G29U C45A | 0.34 |
| C23G A25C G29A C42G | 0.01 |
| C23G G33A A39U | 0.07 |
| C23A A39G G40C | 0.02 |
| C23A A24U G30A G40A | 0.14 |
| C23A A24U U28G | 1.63 |
| C23A A26C U32C U43A | 0.05 |
| C23A A24G C37A G40U A41G | 0.11 |
| C23G A24C C37G | 0.01 |
| C23A G27U C37U | 0.02 |
| C23A A24U C31A C37A | 0.08 |

| Variant | self-cleavage |
| --- | --- |
| C23A G30U C46A | 1.76 |
| C23A A24G C45U | 0.32 |
| C23G A24U C46A | 0.72 |
| C23A A24U A25G | 0.62 |
| C23A A24U A25U | 1.44 |
| C23G G27A U32G C37U | 0.03 |
| C23A A24C C31U | 0.29 |
| C23A C31A G44U | 0.09 |
| C23G G36U G44A C46A | 0.06 |
| C23A G36A A39U G40U G44A | 0.09 |
| C23G A24C U28G G29U C46A | 0.85 |
| G22U U43A C46G | 0.07 |
| G22U U28G C37A A41U | 0.18 |
| C23G U28C U34C | 0.08 |
| C23A C31U U34G C42U | 0.3 |
| C23G G35U U38A | 0.04 |
| C23G G35U C46G | 0.08 |
| C23G G30A A39C | 0.08 |
| C23G A25C A26G U28C | 0.41 |
| C23A C31G G36C C37U | 0.02 |
| G22U U32C C37A U38C A41U | 0.03 |
| C23G A41U C42U | 0.09 |
| C23A A26U C42A | 0.31 |
| C23G C31U U34G | 0.02 |

| Variant | self-cleavage |
| --- | --- |
| C23A U38C A39U A41G | 0.22 |
| G22U U28C U38C | 0.17 |
| G22U U38A G40C | 0.07 |
| C23A U28G G33A | 0.05 |
| C23A U34G G35C | 0.05 |
| C23A G33C G35A | 0.04 |
| C23A G29U G30A U34G | 0.1 |
| C23A G27C A41G | 0.14 |
| C23A C37U A41U C46A | 0.06 |
| C23G C31G U32A C37U A39G C42A | 0.02 |
| C23G A24U G35A C37A A41U C42U | 0.01 |
| C23A A25C C37A | 0.01 |
| C23A A39C C45A | 0.08 |
| C23A U28G U32A U38C C45A | 0.02 |
| G22U U28A G36U U43A | 0.05 |
| C23G G33C U43A | 0.03 |
| G22U G36U U43A C45G | 0.05 |
| C23G A39C G44A | 0.04 |
| C23G G40U U43C | 0.03 |
| C23G G40U U43A | 0.01 |
| C23G G33A C42U | 0.06 |
| C23A A24C C46U | 0.29 |
| C23A G35U C45U | 0.27 |
| C23A U34G G36U | 0.08 |

| Variant | self-cleavage |
| --- | --- |
| C23A C42U U43A C46A | 0.4 |
| C23A G27U G36A C42A | 0.13 |
| C23A G35C C37A | 0.07 |
| C23A G29U G44C | 0.3 |
| G22U G40A C45U | 0.08 |
| G22U U28A G35U | 0.07 |
| C23G U32G G44A | 0.23 |
| C23A G35A G40U | 0.03 |
| C23G C37A A41C | 0 |
| C23G G27U C45A | 0.29 |
| C23A G44U C46U | 0.12 |
| C23A G33A G36C | 0.04 |
| C23A A24C C37A A39U | 0.04 |
| C23G G27U C37U C46G | 0.03 |
| C23A G27C G29U G30U G33C G40A | 0.04 |
| C23G G35U A41U | 0.14 |
| C23G A24G G27U C37A | 0.04 |
| C23A U28G C42U U43A | 0.05 |
| G22U U32A U38A | 0.11 |
| C23A C37G C42A | 0.01 |
| C23A C37A U38C G40A | 0.05 |
| C23A C37A C42A | 0.05 |
| C23A G30A G33U U38C A39C A41C | 0.04 |
| C23G A26C G40U G44U C45G C46A | 0.04 |

| Variant | self-cleavage |
| --- | --- |
| C23A U32A G33U U38G C46G | 0.03 |
| G22U U32A U34A | 0.2 |
| C23A G27U U38C | 0.46 |
| C23G G27A A41U | 0.25 |
| C23A G27C G30C | 1.78 |
| C23A G27U U28A U34C A41C | 0.03 |
| C23A A26G U32C C46G | 0.07 |
| C23A C31U C42U | 0.11 |
| C23G U32C G33A U38C | 0.02 |
| C23G C31U G44A | 0.02 |
| C23G G36C U38G C42G G44U | 0.02 |
| C23A A24U G29A G33A A41C | 0.07 |
| C23A A26U G27C C31G C46G | 0.06 |
| C23A C31G C37A C46U | 0.04 |
| C23A G30U C31U G33C C37G | 0.03 |
| G22U G40C C45A | 0.09 |
| C23A G35U C37G U43C C45A | 0.09 |
| G22U U34C A39C G40A | 0.08 |
| C23A A26U G44U | 0.06 |
| C23A G27A G33C G40C A41U C42U C46U | 0.04 |
| C23A G27U U28G U38A C46A | 0.08 |
| C23A C31G C45A | 0.03 |
| C23A A25U G44A | 0.72 |
